Results published in PubChem BioAssay AID759 (NMMLSC, 2007).
Out of some 190,000 compounds screened, about 270 (0.14%) were called active. Inconclusive results, whose numbers are uncertain, are shown with a selection of clear calls.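 The calls were made as follows: active = GTP binding activity at least 20% away from the 100% baseline, either lowered as inhibitor or raised as activator; inconclusive = flagged as likely green fluorescent, judged across all proteins in the well; inactive = the rest.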

These compounds were tested against GTPase HRas (Homo sapiens) (UniProt P01112) (assay: HRas wt fluorescent GTP binding changes, either direction – biochemical, wildtype, bead-based flow cytometry, multiplex, primary screen (AID 759;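 also: 0% = unlabeled GTP competition control and 100% = no-compound control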)). Conditions: GST-Ras wt beads, Bodipy-FL-GTP binding, at 10 µM, actives lie on both sides.
Sequence of UniProt P01112 (P01112 whole entry, looked up): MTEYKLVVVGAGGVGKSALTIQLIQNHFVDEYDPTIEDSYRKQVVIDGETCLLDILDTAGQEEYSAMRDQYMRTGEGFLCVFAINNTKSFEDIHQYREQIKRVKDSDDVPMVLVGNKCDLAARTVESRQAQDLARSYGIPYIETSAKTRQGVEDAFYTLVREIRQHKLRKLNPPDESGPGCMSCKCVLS

Structure (SMILES)	GTP binding activity
Cc1nc2sccn2c1-c1nc(-c2cc3ccccc3o2)cs1	inactive: 81%
CCn1c(COc2ccccc2)nnc1SCC(=O)c1cccc([N+](=O)[O-])c1	inconclusive: 106%
COc1cccc(OCC(=O)NNC(=S)Nc2ccc(Cl)cc2Cl)c1	inactive: 93%
Cc1ccc(-c2csc3nc4c5ccccc5c(NCCCN5CCOCC5)nn4c(=O)c23)cc1	active: 60%
O=C(c1cccnc1)N1C2C=CC(C2)C1(C(F)(F)F)C(F)(F)F (configuration not stated)	inconclusive: 92%
CCOc1ccc2c(c1)sc(=NC(=O)C1CC1)n2C	inconclusive: 92%
O=C(Nc1ccccc1)C1=C[C@H](c2coc3ccccc3c2=O)C[C@H](OCCCCO)O1	inactive: 99%
c1ccc(Nc2nc(-c3ccccn3)cs2)cc1	inactive: 102%
O=c1[nH]c(/C(=N\O)c2ccccc2)no1	inconclusive: 87%
CCOc1ccc(-c2nc[nH]c2[N+](=O)[O-])cc1	inactive: 98%
O=C(O)COc1ccccc1/C=N/NC(=O)c1cccc(S(=O)(=O)Nc2cccc(Cl)c2)c1	inactive: 87%
Cc1ccc2c(CC(=O)NC3CCCc4ccccc43)coc2c1 (configuration not stated)	inconclusive: 105%
O=C(O)c1ccc(CNCc2ccc(F)cc2)cc1	inactive: 86%
Cc1ccc(NC(=S)NCc2ccc(S(N)(=O)=O)cc2)cc1Cl	inconclusive: 97%
COc1ccc(C2=Nn3c(nnc3-c3ccco3)SC2)cc1OC	inconclusive: 62%
CCc1ccc(CNC(=O)CCc2nnc(CCc3ccc(OC)cc3)o2)nc1	inconclusive: 96%
O=C(c1cc([N+](=O)[O-])ccc1Cl)N1CCN(c2ccccc2)CC1	inconclusive: 101%
O=C(C[n+]1cc(Br)cc(Br)c1)c1cccc([N+](=O)[O-])c1	inactive: 92%
Cn1c(=O)c2cc(S(=O)(=O)NCCC(=O)NCc3ccccc3Cl)ccc2n(C)c1=O	active: 68%
O=C(c1ccc(-c2ccccc2)cc1)N1CCN(Cc2ccccn2)CC1	inconclusive: 100%
O=C(Cc1ccc(Cl)cc1)c1c[nH]c(C(=O)NCCCn2ccnc2)c1	inconclusive: 92%
COCc1c(C(=O)OCc2c(C)noc2C)oc2ccccc12	inconclusive: 96%
Cc1cc(OCc2ccc(C(=O)n3cccn3)o2)ccc1Cl	inconclusive: 96%

Structure (SMILES)	GTP binding activity
COCCNC(=O)CSc1nc2ccccc2c(=O)n1CC1CCCO1 (configuration not stated)	inconclusive: 105%
Cc1ccc(Nc2nnc(SCC(=O)NCCN3C(=O)CSC3=O)s2)cc1	inactive: 99%
CCn1c(SCC(=O)c2ccc(Cl)cc2)nnc1-c1ccoc1C	inconclusive: 93%
CCc1cccc(CC)c1-n1c(SCC(=O)c2c(N)n(C)c(=O)n(C)c2=O)nnc1-c1cccnc1	inconclusive: 101%
CCCCNS(=O)(=O)c1ccc2c(c1)oc(=O)n2CC(=O)OCC	inconclusive: 103%
CC(=O)Nc1ccc(NC(=O)c2ccccc2CCc2ccccc2)cc1	inactive: 93%
Cc1cc([N+](=O)[O-])nn1CCC(=O)Nc1nccs1	inactive: 96%
Cc1c(Nc2ccc(C=O)cc2)c(=O)n(-c2ccccc2)n1C	inactive: 96%
COc1cc(NC(=S)NCC2CCCO2)c(OC)cc1Cl (configuration not stated)	inconclusive: 105%
Cn1c(SCc2ccc(F)cc2)nnc1-c1cccs1	inconclusive: 103%
Cc1ccc(SCC(=O)Nc2ccc(F)cc2[N+](=O)[O-])cc1C	inconclusive: 96%
Fc1cccc(CN2CCN(c3nc4nonc4nc3NC3CC3)CC2)c1	inconclusive: 91%
COc1cc2[nH]c3c(N4CCN(c5ccc(Cl)cc5)CC4)ncnc3c2cc1OC	inconclusive: 106%
COc1ccc(N2CCN(C(=O)CSc3nnc4c5cc(C)ccc5n(C)c4n3)CC2)cc1	inconclusive: 90%
COc1cc2c(cc1OC)CC(=O)NC=C2	inactive: 97%
O=c1[nH]c(SCc2c(Cl)cccc2Cl)nc2ccccc12	inactive: 97%
COc1ccc(-c2cc(-c3ccc(C)cc3)nc(SCc3nnc(-c4ccccc4)o3)c2C#N)cc1OC	inactive: 102%
CC(C)=C1SC(N2CCN(c3cccc(C(F)(F)F)c3)CC2)=NC1=O	inconclusive: 95%
C/C(=N\O)c1ccc2c3ccccc3n(C)c2c1	inconclusive: 104%
CCCCN(CCCC)C(=O)CCS(=O)(=O)c1ccc2c(c1)n(C)c(=O)c(=O)n2C	inconclusive: 107%
Cc1c(C(=O)NCc2cccnc2)oc2ccc(S(=O)(=O)N3CCC4(CC3)OCCO4)cc12	inconclusive: 102%
COc1ccc(C(=O)NCc2nnc(SCC(=O)Nc3ccccc3OC)n2C)cc1	inconclusive: 96%
CC1CCCC(C)N1CCCNC(=O)Cn1cc2c(n1)CCCC2 (configuration not stated)	inconclusive: 104%

Structure (SMILES)	GTP binding activity
CC(C)CN(C)C(=O)CC1C(=O)NCCN1C (configuration not stated)	inconclusive: 96%
CCS(=O)(=O)N1CCCC(C(=O)NCC2CCCO2)C1 (configuration not stated)	inconclusive: 104%
Nc1nc(SCC(=O)NC2CCCCCC2)[nH]c(=O)c1-c1ccccc1	inactive: 103%
Cc1ccc(S(=O)(=O)N(C)C)cc1NC(=O)COC(=O)C1COc2ccccc2O1 (configuration not stated)	inconclusive: 89%
O=C(C(c1ccccc1)c1ccccc1)N1CCN(Cc2ccncc2)CC1	inconclusive: 107%
Cc1ccc2[nH]c3nc(SCCN4CCOCC4)nnc3c2c1	inconclusive: 89%
O=C(COC(=O)CCc1c[nH]c2ccccc12)Nc1cc([N+](=O)[O-])ccc1Cl	inconclusive: 94%
COC(=O)CN(C(=O)CSc1nnc(-c2cccc(OC)c2)o1)c1ccc(OC)cc1	inconclusive: 106%
CC(=O)Nc1ccc(S(=O)(=O)Oc2ccc(/C=N/N=C3/NC(=O)C(CC(=O)O)S3)cc2)cc1 (configuration not stated)	inactive: 92%
O=C(NC(=S)NCCCN1CCOCC1)c1cccc2ccccc12	inactive: 99%
O=C(N/N=C/c1sc(=O)n(-c2ccccc2)c1Cl)c1ccncc1	inconclusive: 102%
COc1ccc(NC(=S)NCCc2c[nH]c3ccc(OC)cc23)c(OC)c1	inconclusive: 101%
Cc1cccc(-n2c(SCc3cc(=O)n4c(C)cccc4n3)nc3[nH]ncc3c2=O)c1	inconclusive: 93%
CC(C)OC(=O)c1cccc(-c2ccc(C=O)o2)c1	inactive: 105%
C/C(=N\Nc1ccc(C(=O)O)cc1)c1ccc(-n2ccnc2)cc1	inactive: 96%
O=C(Nc1cc(Cl)c(O)c(Cl)c1)C1CCCO1 (configuration not stated)	inconclusive: 101%
COc1ccc(CC(=O)OCC(=O)Nc2cccnc2Cl)cc1OC	inactive: 94%
O=C(NN1CCN(Cc2ccccc2)CC1)c1ccc(Cl)cc1	inactive: 98%
COc1ccc(/C=C(/C#N)C(=O)Nc2ccc(O)cc2)cc1C(=O)O	inconclusive: 74%
CCOC(=O)c1nn(-c2ccccc2)c(=O)cc1SC(C)C	inactive: 95%
O=C(O)c1ccccc1S(=O)CCO (configuration not stated)	inconclusive: 106%
OC(CNCC(c1ccco1)N1CCCCC1)c1ccccc1 (configuration not stated)	inconclusive: 107%
CCOc1ccc(C(=O)Cc2cc(OC)c(OC)cc2[N+](=O)[O-])cc1	inconclusive: 106%

Structure (SMILES)	GTP binding activity
CCOC(=O)n1c(=O)[nH]c2ccc(Br)cc21	inactive: 95%
CCOC(=O)Nc1ccc(C)cc1NC(=O)OCC	inconclusive: 106%
Cc1ccc(NCc2nnc(SCC(=O)Nc3cccc(O)c3)n2CC2CCCO2)c(C)c1 (configuration not stated)	inconclusive: 101%
Cc1noc(NS(=O)(=O)c2ccc(N/C=C/C(=O)c3ccc4c(c3)OCO4)cc2)c1C	inconclusive: 92%
COc1cc(C(=S)N2CCCC2)ccc1O	inconclusive: 88%
COc1ccc(-c2cc(C3CC3)nc3sc(C#N)c(N)c23)cc1	inconclusive: 97%
Cn1nc(C(F)(F)F)c(/C=N/OC(=O)c2ccccc2)c1SCc1ccc(Cl)cc1	inconclusive: 466%
COc1ccc(OC)c(NC(=O)c2ccc(CN3CCOCC3)cc2)c1	inconclusive: 105%
Cc1ccc(C(=O)Oc2coc(CSc3nnc(NC(=O)c4cccs4)s3)cc2=O)cc1C	inconclusive: 93%
CCCCCCn1c(Br)nc2c1c(=O)n(C)c(=O)n2C	inconclusive: 93%
CC12CCC(C(=O)NCCCn3ccnc3)(OC1=O)C2(C)C (configuration not stated)	inconclusive: 109%
CCOC(=O)c1ccc(-n2c(C)ccc2C)cc1	inconclusive: 97%
COc1cc(N(C)C)c([N+](=O)[O-])cc1C(=O)N1CCN(Cc2ccccc2)CC1	inactive: 98%
COCCn1c(SCC(=O)Nc2ccc(OC)cc2)nc2c(oc3ccccc32)c1=O	inconclusive: 91%
COc1ccc(NC(=O)COC(=O)c2ccc(OCc3c(C)noc3C)cc2)cc1OC	inactive: 101%
O=C(CN1C(=O)c2cccc3cccc(c23)C1=O)NCCN1CCOCC1	inconclusive: 94%
COc1ccc(N2C(=O)CC(Sc3nccc(C)n3)C2=O)cc1 (configuration not stated)	inconclusive: 101%
NS(=O)(=O)c1ccc(N=Nc2c(=O)[nH]n3c(=O)c4c([nH]c23)CCCC4)cc1	inconclusive: 89%
C=CCn1c(-c2cccn(Cc3ccc(Cl)cc3Cl)c2=O)n[nH]c1=S	inconclusive: 107%
CCO[C@@H]1OC(C(=O)NCc2ccccc2)=C[C@H](C2CCCCC2)[C@H]1CCCO	inactive: 97%
COc1cc(/C=C/c2ccc3cccc([N+](=O)[O-])c3n2)ccc1OCC(=O)O	active: 72%
COC(=O)C1=C(N)OC2=C(C(=O)CC(C)(C)C2)C1c1cccnc1 (configuration not stated)	inconclusive: 103%
COc1ccc(-c2ccc(SCc3ccccn3)nn2)cc1OC	inconclusive: 86%
